# According to the supplement of paper PMC8728848:
# The list shows a part of the results.
# What was measured:
# Experiment in all cases: glycan array binding signal (z-score within array); higher = stronger binding
# Conditions in all cases: glycan notation: IUPAC condensed, linker removed
# GalNAc(b1-4)GlcNAc = biological target: GalNAc(b1-4)GlcNAc
# How it was run: (§1)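 Columns mapping to the same glycan were averaged after glycan names were converted to IUPAC-condensed notation. The data come from 3228 arrays in the Consortium for Functional Glycomics database, limited to those with an available protein sequence. Binding is reported as a within-array Z-score averaged across arrays of one protein sequence and across linkers.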
# [1] = biological target: GalNAc(b1-4)GlcNAc(b1-2)Man
# How it was run: as §1
# [2] = biological target: GalNAc(b1-4)GlcNAc(b1-2)Man(a1-3)[GalNAc(b1-4)GlcNAc(b1-2)Man(a1-6)]Man(b1-4)GlcNAc(b1-4)GlcNAc
# How it was run: as §1
# [3] = biological target: GalNAc(b1-4)GlcNAc(b1-3)GalNAc(b1-4)GlcNAc
# How it was run: as §1
# GalNAc(b1-4)GlcNAc6S = biological target: GalNAc(b1-4)GlcNAc6S
# How it was run: as §1
# GalNAc(b1-6)GalNAc = biological target: GalNAc(b1-6)GalNAc
# How it was run: as §1
# GalNAc3S(b1-4)GlcNAc = biological target: GalNAc3S(b1-4)GlcNAc
# How it was run: as §1
# GalNAc3S(b1-4)GlcNAc3S = biological target: GalNAc3S(b1-4)GlcNAc3S
# How it was run: as §1
# [4] = biological target: GalNAc3S(b1-4)[Fuc(a1-3)]GlcNAc
# How it was run: as §1
# GalNAc4S6S(b1-4)GlcNAc = biological target: GalNAc4S6S(b1-4)GlcNAc
# How it was run: as §1
# GalNAc6S(b1-4)GlcNAc = biological target: GalNAc6S(b1-4)GlcNAc
# How it was run: as §1
# Glc(a1-4)Glc = biological target: Glc(a1-4)Glc
# How it was run: as §1
# [5] = biological target: Glc(a1-4)Glc(a1-4)Glc(a1-4)Glc
# How it was run: as §1
# Glc(a1-6)Glc(a1-6)Glc = biological target: Glc(a1-6)Glc(a1-6)Glc
# How it was run: as §1
# [6] = biological target: Glc(a1-6)Glc(a1-6)Glc(a1-6)Glc
# How it was run: as §1
# Glc(b1-4)Glc = biological target: Glc(b1-4)Glc
# How it was run: as §1
# Glc(b1-6)Glc = biological target: Glc(b1-6)Glc
# How it was run: as §1
# GlcA(b1-3)Gal = biological target: GlcA(b1-3)Gal
# How it was run: as §1
# GlcA(b1-3)GlcNAc = biological target: GlcA(b1-3)GlcNAc
# How it was run: as §1
# GlcA(b1-6)Gal = biological target: GlcA(b1-6)Gal
# How it was run: as §1
# [7] = biological target: GlcA3S(b1-3)Gal(b1-4)GlcNAc(b1-2)Man
# How it was run: as §1
# [8] = biological target: GlcA3S(b1-3)Gal(b1-4)GlcNAc(b1-3)Gal(b1-4)Glc
# How it was run: as §1
# [9] = biological target: GlcNAc(a1-3)Gal(b1-4)GlcNAc
# How it was run: as §1
# [10] = biological target: GlcNAc(a1-4)Gal(b1-3)GlcNAc
# How it was run: as §1
# [11] = biological target: GlcNAc(a1-4)Gal(b1-4)GalNAc
# How it was run: as §1
# [12] = biological target: GlcNAc(a1-4)Gal(b1-4)GlcNAc
# How it was run: as §1
# [13] = biological target: GlcNAc(a1-4)Gal(b1-4)GlcNAc(b1-3)Gal(b1-4)Glc
# How it was run: as §1
# [14] = biological target: GlcNAc(a1-4)Gal(b1-4)GlcNAc(b1-3)Gal(b1-4)GlcNAc
# How it was run: as §1
# [15] = biological target: GlcNAc(a1-4)Gal(b1-4)GlcNAc(b1-3)Gal(b1-4)GlcNAc(b1-3)Gal(b1-4)GlcNAc
# How it was run: as §1
# [16] = biological target: GlcNAc(a1-4)Gal(b1-4)GlcNAc(b1-3)Gal(b1-4)[Fuc(a1-3)]GlcNAc(b1-3)Gal(b1-4)[Fuc(a1-3)]GlcNAc
# How it was run: as §1
binder,measurement,setting,value
CvGal2 (Crassostrea virginica) (protein) MGSSHHHHHHSSGLVPRGSHMRIREAGKRKDTTKVYQIPDGLFPGQQVMLRGRVPWGSKSFSINFSATPRMGEGDILFHLNPRPSEGVCIRNALLNGSWGAEEKWQPYFPFDDGRSFSVKIEVTNDAFRTFVNGRPFVDFLHRTDFRAGKYLTLREGAEYYDVIFQSKPNIPLTTAIHNGMRIGKTIRIRGMCTAQDGFAINFNDNRNNIYFHFNARPAQRTVVRNSYFGSWGNEETAISKEFPFYPFLYFYASFVCMEDKFAVYVNDEHFIDFAHRGNPNNISVLQIKGSVNVLDTECLEPMGEDAMTEVDSGLENGDLFVLNGLMTERGKTFAVNFLNGFTENDDIALHFNPRKSTGEVVLNSRYGGAWQSEEKVALPGVFWSNRPLQVKVETKRNKFKIYVNGVDLAKYKIRGNVEDVHAVQVKGDVFLLETLLLKRLMKPVWERLTGGIRPGTWVTLQGTPKKNWQQFVVNFALDDTLDGDIAFHFNVRRGARQVVRNHRQSGAWGREETVTPFFAFDSEATFEIVFFVKEEKFLIYFNGKLFFEFVHRVPVERITHIYMDGDCNFYEPEVVI,glycan array binding signal (z-score),GalNAc(b1-4)GlcNAc,-0.33
same,glycan array binding signal (z-score),[1],-0.333
same,glycan array binding signal (z-score),[2],-0.322
same,glycan array binding signal (z-score),[3],-0.322
same,glycan array binding signal (z-score),GalNAc(b1-4)GlcNAc6S,-0.324
same,glycan array binding signal (z-score),GalNAc(b1-6)GalNAc,-0.336
same,glycan array binding signal (z-score),GalNAc3S(b1-4)GlcNAc,-0.329
same,glycan array binding signal (z-score),GalNAc3S(b1-4)GlcNAc3S,-0.335
same,glycan array binding signal (z-score),[4],-0.322
same,glycan array binding signal (z-score),GalNAc4S6S(b1-4)GlcNAc,-0.33
same,glycan array binding signal (z-score),GalNAc6S(b1-4)GlcNAc,-0.342
same,glycan array binding signal (z-score),Glc(a1-4)Glc,-0.341
same,glycan array binding signal (z-score),[5],-0.338
same,glycan array binding signal (z-score),Glc(a1-6)Glc(a1-6)Glc,-0.343
same,glycan array binding signal (z-score),[6],-0.334
same,glycan array binding signal (z-score),Glc(b1-4)Glc,-0.337
same,glycan array binding signal (z-score),Glc(b1-6)Glc,-0.325
same,glycan array binding signal (z-score),GlcA(b1-3)Gal,-0.33
same,glycan array binding signal (z-score),GlcA(b1-3)GlcNAc,-0.318
same,glycan array binding signal (z-score),GlcA(b1-6)Gal,-0.337
same,glycan array binding signal (z-score),[7],-0.307
same,glycan array binding signal (z-score),[8],-0.304
same,glycan array binding signal (z-score),[9],1.33
same,glycan array binding signal (z-score),[10],-0.332
same,glycan array binding signal (z-score),[11],-0.336
same,glycan array binding signal (z-score),[12],-0.339
same,glycan array binding signal (z-score),[13],-0.342
same,glycan array binding signal (z-score),[14],-0.333
same,glycan array binding signal (z-score),[15],-0.328
same,glycan array binding signal (z-score),[16],-0.319
